The full ranking holds about 33,000 sequences; the median of “E-score (-0.5 to 0.5)” is about -0.032, and the highest 2% start at about 0.36. Some of the results follow.
The sequences below were run against T1, Sko1 (UniProt Q02100) (assay: PBM E-score (8-mer binding enrichment) (E-score (-0.5 to 0.5)); higher = stronger / more preferred TF binding; most listed sequences are background and not binding sites). Conditions: protein concentration: 200 nM; construct: GST-full length.
T1 sequence: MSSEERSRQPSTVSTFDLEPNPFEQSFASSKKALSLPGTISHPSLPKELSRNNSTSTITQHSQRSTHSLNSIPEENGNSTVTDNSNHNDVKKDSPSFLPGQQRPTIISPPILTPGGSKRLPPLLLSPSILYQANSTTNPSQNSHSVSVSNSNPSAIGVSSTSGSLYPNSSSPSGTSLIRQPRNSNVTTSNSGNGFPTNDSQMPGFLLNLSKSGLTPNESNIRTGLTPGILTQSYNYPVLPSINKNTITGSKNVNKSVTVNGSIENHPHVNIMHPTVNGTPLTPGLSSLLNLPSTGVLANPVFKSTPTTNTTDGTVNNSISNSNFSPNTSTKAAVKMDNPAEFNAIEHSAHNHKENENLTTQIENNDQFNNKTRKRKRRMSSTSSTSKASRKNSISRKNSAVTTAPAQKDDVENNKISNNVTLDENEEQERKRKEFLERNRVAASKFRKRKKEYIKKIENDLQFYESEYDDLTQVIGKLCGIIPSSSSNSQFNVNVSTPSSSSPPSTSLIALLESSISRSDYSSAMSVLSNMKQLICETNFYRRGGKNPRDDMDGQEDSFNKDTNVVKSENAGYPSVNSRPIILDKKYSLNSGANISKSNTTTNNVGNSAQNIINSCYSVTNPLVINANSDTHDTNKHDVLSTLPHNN
Procedure: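 Universal 'all 10-mer' protein binding microarrays (Agilent AMADID 015681) probed with GST-tagged S. cerevisiae TFs (full-length or DBD) made by in vitro transcription/translation (PURExpress), about 100-200 nM. Bound TF was detected with fluorescent anti-GST. Each ungapped 8-mer (which stands for itself and its reverse complement) is scored by the PBM enrichment score (E-score), a modified Wilcoxon-Mann-Whitney statistic from -0.5 to +0.5, computed with the Universal PBM Analysis Suite. Scale: above 0.35 generally sequence-specific binding.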

Sequence | PBM E-score
ACCCCCAT | -0.29
CCGAACCC | -0.324
CGTGGGAG | 0.0814
CTTCCTAA | -0.0643
CCGCACTA | -0.0619
TAATCCAA | 0.198
CCCGAGTA | -0.117
CCCCAAAC | -0.266
CCCTCTCA | -0.339
ACTCGAAG | -0.183
ACCGAGAG | -0.307
AACGGACC | -0.224
GCCGCTTA | -0.123
CCGAAGAG | -0.149
GGGCGTGA | 0.0355
TATACAAA | 0.21
GTCGACAA | 0.0253
ACAAGTTC | 0.0278
AGCTGTCG | -0.146
CCAATGAG | -0.0961
AATTACGC | 0.44
CTGACGGC | -0.167
ATCACAGA | -0.0306
AGGCAAAA | -0.0629
AGCCAGAT | -0.164

Sequence | PBM E-score
GGAACTAA | -0.0195
CGATAGTA | -0.089
CTGTTTGC | 0.126
CTACATGA | 0.0515
CGATTGAA | 0.0268
AGGCCACG | -0.0951
TAGCGCGA | -0.0664
ACGTGTTA | 0.434
AGCGTTAA | -0.0246
AGATAGCA | -0.0121
AGAAGGAA | -0.235
ATTGTTCA | 0.112
CTAGGCGA | -0.279
GACTTTAC | 0.151
ACGGGAAC | -0.0328
ACTGAGTG | -0.117
GAAGTGTC | -0.14
AGGTTTCA | -0.0467
ACTAAGCA | 0.0365
CCTGCTGC | -0.163
CATTCTAA | 0.203
AATCACTC | -0.0882
ATCAGAGA | -0.00493
ACGCACCA | 0.201
TACTATCA | 0.04

Sequence | PBM E-score
CATATACC | -0.0988
GTTTCGCA | -0.00662
GGGGCAGA | -0.132
ACCCGCGT | -0.00843
AGCCTCTA | -0.256
CCCACCCC | -0.0513
CAGAGTGC | -0.0625
AATAAACG | 0.265
AGATATTC | 0.0644
ACATCTTG | -0.0418
AGGAGCAC | -0.172
CATGTGTA | 0.0165
AGGCCAAG | -0.225
AACAGGGA | -0.0465
CGAATGCA | 0.203
ACTTGCTG | 0.0473
ACGGCCTC | -0.257
GTTTACAA | 0.19
TCCGCCAA | -0.0213
CTCATTAC | 0.33
GGCATGCA | 0.0671
AACCCTAC | -0.111
ATTATACG | 0.299
ATGGACCC | -0.151
GGCTCGTA | 0.103

Sequence | PBM E-score
TCCTCTAA | -0.0691
TAGGGTGA | 0.035
CCAGACAA | -0.182
TACTACGA | 0.276
TAACCCGA | -0.139
CTACCCTA | -0.0649
CCGAGTAA | -0.0722
CTGAAGAC | -0.129
GACTGCAC | -0.14
GGTCACAC | -0.0911
ACGACTTA | 0.143
CGGAGATA | -0.0481
AGGAGCTA | -0.0523
AGTCCAGA | -0.14
ATCCCGTA | 0.166
AAGGGATC | -0.146
CAGCACCG | -0.198
ACAAATAC | 0.197
ATCGGGAC | -0.0632
CGTCTCCA | 0.201
CGCAAATA | 0.201
CCCTCACC | -0.152
GATTTCAC | 0.17
GCCGCCAA | -0.276
GGGCGTCA | 0.223

Sequence | PBM E-score
ACGAAATC | 0.277
AGCGATCG | -0.0389
CAATCGCC | -0.105
ATCAGCAC | 0.0773
AATTCAAT | 0.185
GAACATGC | -0.0874
AGTCGAAC | -0.0653
ACCCAATA | 0.00792
CAACACAA | 0.171
ATAACATG | 0.117
AGCGCTGC | -0.167
TGGGGTAA | -0.142
AATGGGCT | -0.0428
GCGCGGCC | -0.0613
CATGCGCA | 0.145
ACGCCCTG | -0.0628
CCGACGCA | 0.0873
AACCGGAA | -0.192
CCGCGTCG | -0.127
AAGAGGGG | -0.279
GCTTTAAA | -0.0875
GATAATAC | 0.169
ATACATAT | 0.29
AATGTAAG | 0.153
ACGCAGGA | 0.0876

Sequence | PBM E-score
GCGCCCAC | -0.058
AGAGGGCA | -0.237
ACGAAACT | 0.215
CGCAGCGC | -0.0261
ATTCGTCC | 0.119
ATATACGA | 0.276
ATAGCGAC | 0.0478
ACATGTCT | 0.0949
AAAGTGAG | 0.126
AAGCAACG | 0.107
ATGACTGA | 0.0911
GAACCGCA | 0.0871
AACCTAGA | -0.0495
AATGCTAC | 0.105
CTAGTGGA | -0.299
GTCTCTTA | -0.0168
CGCATTCA | 0.232
CCGTTCTA | -0.0829
CGCATCAG | -0.0566
CCGCAACA | 0.165
ACGGGTCG | -0.0427
ATATCACC | 0.214
CGCGCCAA | 0.0639
TGAAGGAA | -0.0645
ATTTAATG | 0.292

Sequence | PBM E-score
ACGAAGCT | 0.0464
AGAGCCGC | -0.172
ACATTGGA | 0.0753
ATGTAGCC | -0.171
CCGGTTAC | -0.0312
ATCAACCA | 0.0221
CCGAGCCG | -0.288
ATGATCAA | 0.278
GGTCCTAC | -0.129
GCTGATCA | -0.0916
TATTGAAA | 0.18
ATTCTTGA | 0.126
ATTGCCCG | -0.208
AGCGCTGA | 0.00751
CATGGCAG | -0.07
GATTCGTA | 0.251
AACAACCC | -0.0561
CTGTCCTA | -0.169
AATTCTGG | 0.019
CATCGAAG | 0.00565
ATTCGTGC | 0.198
CGATTGCA | 0.0846
ACTCTAAG | -0.129
CCCCTTAG | -0.341
ACTAGTCG | -0.197

Sequence | PBM E-score
TGATAGAA | 0.0834
AATGTTGA | 0.13
GATTCTTA | 0.207
AAAGGCTT | -0.133
AAGTGCTG | 0.013
CGCTATCC | -0.0434
AGGTCTAC | -0.148
ACTCATTC | 0.169
GTATATTA | 0.355
TCTCCAAA | -0.115
GCACTCGA | -0.274
ACTTATTA | 0.157
ACCAGTTC | -0.22
CATAAGCG | -0.0292
CGAATAGA | -0.0425
CCTTGGCG | -0.329
GAGCTTAA | -0.101
CTTCCACC | -0.0638
CCGGTACG | 0.0472
AGGAGTAA | -0.00289
AAGTTGGC | -0.114
ATCAGGGA | -0.19
GCTGTTCC | -0.212
ATGCTATG | 0.233
CCGGAGAA | -0.226

Sequence | PBM E-score
ATCTAGTA | 0.225
GTCCGTAA | 0.00251
GCCATCCA | -0.213
CGTGTGAC | 0.336
TGCCTTAA | -0.125
CTACTACC | -0.15
ACACGTAA | 0.472
GGTTAAAA | 0.0589
AACCCGCC | -0.0447
GGGAGACC | -0.382
GTGATGTA | 0.397
GTACAGAA | 0.055
CTCACGCC | 0.00864
CACACTGA | -0.0502
GTCGCCCA | -0.101
ATATAGGG | -0.0541
CTTGTCAC | -0.0926
CGTGGGTA | 0.0415
AGATGTGG | -0.0787

— the supplement of paper PMC3334620
